Assay results taken from the supplement of paper PMC11417369.
The other results are listed elsewhere or left out.

The sequences below were run on PfHDP1 homeodomain (GST-tagged) (assay: gcPBM binding intensity (ln(normalized median fluorescence intensity)); higher = stronger DNA binding).
How it was run: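 Binding intensity values are the highest Masliner-normalised natural-log median intensity among replicate spots of either probe orientation. The binding step lasted 1 h in 1× PBS with 1% milk, 0.2 mg/ml BSA, 0.5% salmon testes DNA and 0.03% Triton X-100, using GST-tagged P. falciparum DNA-binding domains expressed in E. coli on an Agilent 4 × 180k array of primer-extended double-stranded 36-bp intergenic genomic probes plus negative controls. Alexa488 anti-GST antibody and a 488 nm scan detected bound protein.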

Sequence	gcPBM binding intensity (ln)
AAACGTGCGTATATGTGTACGCATATATATATATAT [XGTACX_site5252]	9.26
TTTATTAATTAAACCATACACACATAATTTTTTTAT [CACACA_site842]	6.66
TAAAAAATTATAAAATGTACATAAAAAAAAAAAAAA [XGTACX_site3376]	6.51
AAAGCACGCAAGAATACACACAAATATTATAAAAAA [CACACA_site6206]	6.55
ATCCCAGTAATATATAGTACATAACTATAAGAGAAT [XGTACX_site6909]	6.93
AGGAAAACAAAAGATGCATGCTAATTTTCCTCGCGT [TGCATGCA_site627]	6.31
CTGAAGAAACTACAACGTACAAAATATGTATATATT [XGTACX_site3779]	6.35
ATATTTTTTAGGGTCACACATACTTATTATATAAAT [CACACA_site4926]	6.71
AATATTTAACACCTTATACACACTTTCTTCCTTTTT [CACACA_site785]	6.92
TATGATGAGATAACAAAAGTTGTACTTTTTTTTTTT [CACACA_negctrl_site1172]	6
CATATATACTCATACACACACACACCGACACAGACA [CACACA_site5026]	7.27
ATGATATGGATAAATACACACAATATAATAATGTCT [CACACA_site1433]	6.58
CACAAACAAAGACACACACACACACGCACAAAAATG [CACACA_site7193]	7.45
CAAATAGCTAGCTGTGCACACAAACATATTTTCCAA [CACACA_site879]	11
AAAATGCATTTGATGTGTACGCATTATAAAGAACAA [XGTACX_site4203]	7.39
ATGGAAATAAAAAAAAAAAAAAAAAAAAATATATAT [GTGCAC_negctrl_site67]	6.36
TAGCCCACATTTAATGGTACAGTGAGTATATATATG [XGTACX_site8044]	6.62
TAATATATTTATAGAGCATGCAACGTAATATTATTA [TGCATGCA_site863]	7.61
TACATAAAATACCATGCATGCTAGTAAAAAAAAAAA [TGCATGCA_site650]	6.04
TCTTTTCTTTTGTGTGTGCACATATAAGCATGAAAC [GTGCAC_site9910]	10.4
TTATTTTTTGTATGAACACACAACTTAATTATGATG [CACACA_site2448]	6.67
ATGTTTCTATAGATTTGTACATATTTCATATGAATA [XGTACX_site1053]	6.78

Sequence	gcPBM binding intensity (ln)
TTTTACAAATATTTCTGTACACATTCTCATATAATT [XGTACX_site1974]	7.04
TTTTTTAATTAATTACCTTTGAATGTGTATTAGGAC [GTGCAC_negctrl_site651]	6.88
ATAGCATTTCACAAATGTACATAAAAAAATAAAAAT [XGTACX_site402]	6.91
AAATGACGAAATAAAATCATAAATTAAAATAAATAA [CACACA_negctrl_site655]	6.26
TAAAACAAAATGGTAACACACACATATATATATATA [CACACA_site8590]	9.2
AAATGGAAATTAATATGTACATATTTATAAGTATGA [XGTACX_site1774]	6.6
TCCTATCATTTATATTTTACTACATAATATTGATAA [GTGCAC_negctrl_site286]	6.41
AATATATAAATATATATAAATAAATATATATATAAA [CACACA_negctrl_site49]	5.93
GTATTCATTCCTTGAGTGCAATTGCAATAAATAAAA	10.7
CATATTAAGATGTGTACACATTTTTATTTTTTTTTT [CACACA_site4425]	6.63
GAAAAGTATAAAAAACGTACAAGTTTTATTTTCACA [XGTACX_site4604]	5.81
TAAAATAAAAAGTTTACACACATATATAACTTTAAT [CACACA_site6456]	6.24
CCCCTATAAATAGGGTGTACTAATAAATATTTTTAA [XGTACX_site1244]	6.77
ACGGGCGACACATAAGTGCGCAAAAAAAAAAAAATA [GTGCAC_site9688]	7.33
AAAATACAGAAACACACACACACACCCATATATATA [CACACA_site3559]	6.93
TTTTATAAAACATGTAGTACATGAAAAAAAAAATTT [XGTACX_site1626]	6.37
GTTTTTATCATATCATGTACGTATTTTATTTTTTTT [XGTACX_site8643]	6.82
CTTCTGGACAGGAATGCACACATTTTTTTTTCTTTT [CACACA_site1807]	9.25
ATCAAAGATAAATTTACACACATATAAATATAAATA [CACACA_site7409]	6.57
ATGAATTTTTCTCTACAAAAGGATATAATAAAAATA [XGTACX_negctrl_site461]	6.04
TTTTCTAATTAATATTGTACATAAATGTATATATAT [XGTACX_site4749]	6.46
TAGTGTGCCAAATTAGCACACACATATATACATGAA [CACACA_site8910]	7.82

Sequence	gcPBM binding intensity (ln)
ACATCCTATAAATAGAGTACGTAAATTATAATACAC [XGTACX_site5338]	6.69
TATATATATATATATTGTACAAAGATTAATATATAA [XGTACX_site8433]	9.05
ACTTAATTTTTTTATTGTACATGTAAATGAGGGAAA [XGTACX_site6305]	7.08
TATTTTAATAAGAATAAATGAAATGAAATGAAATAT [CACACA_negctrl_site823]	6.62
CATTTTATTCTATATGCATGTTAAAAAATGTGTTGA [TGCATGCA_site128]	6.49
TAATAATAAAAAATACGTACATATTATTTATATATG [XGTACX_site853]	6.26
ATATATAAGAACATATATATTGGAAATATTGAATTT [XGTACX_negctrl_site121]	6
AATAAAAATATTATATGTACATATTTTAATATATAT [XGTACX_site1259]	6.44
TTATGGTATAAAAAAATACACACTTATATATATTCT [CACACA_site488]	6.22
TTTTATTTTTTCTATACATGCATGTCCAATTTTCTT [TGCATGCA_site304]	7.35
GTTTTTTTATAAAATTTTTATATAATTCTTTTATAA [CACACA_negctrl_site1605]	6.51
AAAAAAAAAAAAAACACACATACACGCCCACCCATA [CACACA_site3391]	7.17
TAATTATAATAATAACGTACATATATAAAATGGTGA [XGTACX_site8434]	6.69
TTAAAATATGTAGCTACACACACATAAACAAAATAA [CACACA_site8244]	6.87
TATATATATATATAGGTGCTATAATTTATATACACA	9.23
TGTAGTCTGGAGAAAAGTACACAGTATCTGGTAGCT [XGTACX_site2012]	5.95
TTTTTTTTTCTGAATTTATAATTCAAAAATATATAT [CACACA_negctrl_site300]	6.21
TTATATAACTTTTCTAGTACTTGTATAAATTCCTAC [XGTACX_site3685]	6.64
AAAAAAAAAGAAAAACGTACGTTTATTTAATATATA [XGTACX_site4018]	6.28
ATAATACCCATTATCTTACAACAAAATGCAAACAAA [CACACA_negctrl_site1037]	7.26
AACATAATATCATATACACACAAAAATATTGAAATA [CACACA_site2160]	6.81
AAGAACATATTATATACATGCATAATTCGATAGATT [TGCATGCA_site882]	6.38

Sequence	gcPBM binding intensity (ln)
AAAATTAGATTATGCACACACACTTAAAAATAATAA [CACACA_site1975]	10.1
TACTTATTTTTATAGCATTTCACGGAGGTAGTAATA [CACACA_negctrl_site468]	6.52
ATAATAAATCATCATATTACATTTATCTTTGTTGGA [CACACA_negctrl_site849]	6.46
AACTGTAATTTTATACGTACATAAATAATATTATAT [XGTACX_site4277]	6.5
AGCAGTTTTTTTTTTTTTTTTTTTTTTATTAAAAGC [XGTACX_negctrl_site392]	5.87
TTTATTATATGCACACGTACATATAATATATATATA [XGTACX_site4108]	10.8
TTTGCAACATATAAAAGTACAAATAATATATTTATT [XGTACX_site890]	6.76
AAGTGAAATAAAATATGTACATATATGTATATATAA [XGTACX_site4473]	6.57
TATATATAAAATGTATGTACATATTTATTTATATAG [XGTACX_site657]	6.11
TTTTTTCTTCGTGTATTAAGTCACAATAGGAAAAAA [GTGCAC_negctrl_site644]	6.44
AAAAAAAAAGAATGTGAACACACACCGTGAATATAA [CACACA_site8342]	6.57
ATCGGTATATTATTACATGAATAAACTTACACACAC [TGCATGCA_negctrl_site21]	7.44
TTGTATTAATAATTTTTTATATTATAGTTTATAATA [GTGCAC_negctrl_site130]	6.44
TATATATATAACATTGTACACACAAAGAAATAATAT [CACACA_site8998]	7.29
TGTATAATAAGGAAGAGTACAAGTAAATACACACAT [XGTACX_site2084]	7.72
TACATATATAAAAAAACACACACATATATATATATA [CACACA_site8315]	9.55
TGTATTTATAGACACACACACTTTCTTTTTTTAAGA [CACACA_site7010]	6.47
AACAATTAGAACTTTGCACACTTCTATATATTTTGT [CACACA_site674]	10.2
TATGTAAAATGTGTTTGTACTTATTTATTATATAAA [XGTACX_site2816]	6
ATTATAAATATCAGTGCACACATTTCTACGCAAAGT [CACACA_site4420]	9.79
AAGGAGCCTATGAACACACACATGTACAGATATTAA [CACACA_site6107]	6.49
TTTCTAAGAAAAAAAAAAAAAAAAAAAAAGATACAA [GTGCAC_negctrl_site525]	5.61
